# From PubChem BioAssay AID1508642 (National Center for Advancing Translational Sciences (NCATS), 2021)
# Among all 43,000 compounds or so, about 200 (0.47%) were called active. Roughly 12% stayed inconclusive and do not appear here. The call rests on the fitted dose curve; in most records, active means well fitted cell-killing curve with a large enough effect; inconclusive means small, poorly fitted or top-dose-only effect, or effect the other way; inactive means flat fitted curve, though single readings scatter. The list shows a part of the results.
# Assay: Cell viability qHTS assay in S16 Pmp22-F2sN cells; further: nearly all actives have a fitted effect of over 65% in size
# Settings: S16 Pmp22-F2sN Schwann cells (luciferase reporters placed in the Pmp22 gene) viability, CellTiter-Glo, 24 h; series mostly up to 57.5 µM; activity change, negative = cytotoxicity: at the top concentration
# Summary of the method: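 S16 Schwann cells carrying the Pmp22-F2sN reporter, seeded in 1536-well format, were exposed to library compounds for 24 h at 37C. Viability was read as CellTiter-Glo luminescence after 15 min at room temperature.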
# On the % scale 0 is the no-effect control and ±100 the full control effect.
row,SMILES,"activity change, negative = cytotoxicity"
1,CCOc1ccc(-c2cc3c(=O)n(CC(=O)NCc4ccc(C)cc4)ccn3n2)cc1,inactive: 5.52%
2,COc1cc(C(=O)NCC(c2ccc3c(c2)OCO3)N2CCOCC2)cc(OC)c1OC (stereo not drawn),inactive: 10.2%
3,CCCC(O)c1nc2ccccc2n1CCCOc1ccc(Cl)cc1 (stereo not drawn),inactive: -3.39%
4,COc1cc(/C=C/c2nc(C#N)c(N3CCN(C)CC3)o2)cc(OC)c1OC,inactive: -3.31%
5,CSc1cccc(NC(=O)C2CCN(c3nc4ccccc4[nH]3)CC2)c1,inactive: 3.72%
6,Cc1c(-c2nc(-c3ccccc3)no2)nnn1-c1ccc(F)c(Cl)c1,inactive: 9.73%
7,CCc1ccc(NC(=O)Cn2c(=O)n(-c3ccc(Cl)c(Cl)c3)c(=O)c3c(C)c(C)sc32)cc1,inactive: 16.3%
8,COc1ccc(Cl)c2sc(NC(=O)c3ccc(S(=O)(=O)N4CCOCC4)cc3)nc12,inactive: -8.95%
9,COc1cccc(NS(=O)(=O)c2ccc3c(c2)n(C)c(=O)n3C)c1,inactive: -22%
10,COc1ccc(NC(=O)COCc2cc(-c3ccc4c(c3)OCO4)on2)cc1,inactive: 3.3%
11,CN(C(=O)c1ccc2c(c1)N(Cc1cccc(Cl)c1)C(=O)c1ccccc1S2(=O)=O)C1CCCCC1,inactive: -23%
12,O=C(CSc1nnc(-c2ccccc2Cl)o1)N1CCCc2ccccc21,inactive: -13%
13,COc1ccc(NC(=O)c2c(NCc3cccs3)sc3c2CCC(C)C3)c(OC)c1 (stereo not drawn),inactive: -7.55%
14,CC(=O)N1CCc2cc(Br)cc(S(=O)(=O)CCC(=O)N3CCN(c4ccc(F)cc4)CC3)c21,inactive: 3.9%
15,Cc1c(C(=O)N(Cc2ccccc2F)C2CCS(=O)(=O)C2)oc2ccccc12 (stereo not drawn),inactive: -9.81%
16,Cc1nn(C)c2c1c(C(F)(F)F)cc(=O)n2C(C)C(=O)Nc1ccccc1F (stereo not drawn),inactive: -0.0837%
17,CCOc1ccc(C(=O)c2cn(CC(=O)Nc3ccc(Cl)cc3)c3cc4c(cc3c2=O)OCO4)cc1,inactive: -7.11%
18,COc1ccc(-c2nnc(SCC(=O)Nc3cccc(C(F)(F)F)c3)s2)cc1,inactive: -21.9%
19,CC(C)(C)OC(=O)N1CCC(c2c(C(=O)NCc3ccccc3)cnn2-c2cccc(F)c2)CC1,inactive: -23.8%
20,COc1ccccc1-c1nc2n(n1)C(c1ccccc1Cl)C(C(=O)Nc1cccnc1)=C(C)N2 (stereo not drawn),inactive: -0.56%
21,CCCCn1cc(S(=O)(=O)c2ccc(C)cc2)c(=O)c2cc(F)c(N3CCCCC3)cc21,inactive: 0.0666%
22,CCOc1ccccc1NC(=O)CSc1nnc2[nH]c(=O)cc(C)n12,inactive: 1.85%
23,Cc1cc(O)c(C(c2ccccc2)N2CCCCC2)c(=O)n1Cc1ccco1 (stereo not drawn),inactive: 1.8%
24,COc1ccc(C)cc1NC(=O)c1ccc(NS(=O)(=O)c2c(C)noc2C)cc1,inactive: -0.116%

row,SMILES,"activity change, negative = cytotoxicity"
1,COc1ccc(-c2noc(CN(C)S(=O)(=O)c3c(C)cc(C)cc3C)n2)cc1OC,inactive: -7.88%
2,CCC(C(=O)Nc1cccc(Cl)c1C)n1nc(C)c2sc3ccccc3c2c1=O (stereo not drawn),inactive: 3.2%
3,CC(=O)N1c2ccccc2C(=O)C1N1CCN(c2ccccc2F)CC1 (stereo not drawn),inactive: -4.73%
4,CCOC(=O)c1ccc(NC2=CC(c3ccc(OCC)cc3)N(c3ccc(C(=O)OCC)cc3)C2=O)cc1 (stereo not drawn),inactive: 7.64%
5,CCOC(=O)c1cnc2cc(C(F)(F)F)ccc2c1Nc1cc(C)ccc1OC,inactive: 5.15%
6,Cc1ccc(-c2nc(CCNC(=O)c3ccc(C)c(C)c3)cs2)cc1,inactive: -3.79%
7,Cc1ccc(S(=O)(=O)c2c(O)cc(C)c(NS(=O)(=O)c3ccc(Br)cc3)c2C)cc1,inactive: -15.2%
8,O=C(CSc1nc2c([nH]c3ccccc32)c(=O)n1-c1ccc(Cl)cc1)N1CCc2ccccc21,inactive: 4.44%
9,CSc1cccc(NC(=O)c2cnn(-c3ccc(F)cc3)c2-n2cccc2)c1,inactive: 5.55%
10,Cc1ccc(-c2nc3c(c(SCc4ccc(Br)cc4)n2)Cc2c(CO)cnc(C)c2O3)cc1,inactive: 6.99%
11,COc1ccc(CCNC(=O)CCc2c(C)c3cc4c(C)c(C)oc4cc3oc2=O)cc1OC,inactive: -1.12%
12,O=C(Cn1ncn2c(cc3sccc32)c1=O)NCCc1ccccc1,inactive: -4.28%
13,Cc1ccc2c(=O)cc(C(=O)Nc3ccc(S(=O)(=O)N(C)c4ccccc4)cc3)oc2c1C,inactive: -5.29%
14,CC(=O)Nc1ccc(S(=O)(=O)NC2(C(F)(F)F)C(=O)Nc3c2c(=O)[nH]c(=O)n3-c2cccc(Cl)c2)cc1 (stereo not drawn),inactive: 3.32%
15,CCOC(=O)c1cnc2cc(C(F)(F)F)ccc2c1Nc1ccc(F)cc1F,inactive: 16.8%
16,CCC(=O)N1CCc2cc(CNS(=O)(=O)c3cc(OC)ccc3OC)ccc21,inactive: 2.19%
17,CCc1nc2ccc(C(=O)N3CCN(c4cc(Cl)ccc4C)CC3)cc2nc1CC,inactive: -15.7%
18,Cc1ccc(S(=O)(=O)NCC2CCC(C(=O)NCCc3ccccc3)CC2)cc1 (stereo not drawn),inactive: 9.34%
19,Cc1ccc(CSc2nc3cccnc3n2Cc2ccc(C(=O)NCc3ccco3)cc2)cc1,inactive: 2.28%
20,Oc1ccc(Cl)cc1C1=Nc2ccccc2N=C(c2ccccc2)C1,inactive: -1.07%
21,O=C(c1ccc(F)cc1)c1cn(Cc2ccccc2F)c2cc3c(cc2c1=O)OCCO3,inactive: -4.43%
22,Cc1cccc(-c2nc(CN3CCCC(C(=O)N4CCN(c5cc(Cl)ccc5C)CC4)C3)c(C)o2)c1 (stereo not drawn),inactive: -2.84%
23,Cc1cccc(CNC(=O)Cn2c(-c3cccs3)cc3ccccc32)c1,inactive: -0.624%
24,Cc1cccc(OCC(=O)Nc2ccccc2C(=O)OCc2cc(=O)n3ccsc3n2)c1,inactive: -6.77%

row,SMILES,"activity change, negative = cytotoxicity"
1,Cn1ncc2c(Nc3cc(C(F)(F)F)ccc3Cl)ncnc21,inactive: -3.44%
2,COc1cccc(NC(=O)CN2C(=O)c3cccc4cccc2c34)c1,inactive: -2.65%
3,COC(=O)CSc1ncc2c(n1)-c1ccccc1N(Cc1ccc(Cl)cc1)S2(=O)=O,inactive: -0.759%
4,COc1ccc(CCn2c3c(c(=O)[nH]c2=O)C(NC(=O)c2ccc(Cl)cc2)(C(F)(F)F)C(=O)N3)cc1OC (stereo not drawn),inactive: 10.8%
5,COc1ccc(CNc2ncnc3c2nc2n3CCCC2)cc1,inactive: -6.68%
6,CCc1ccc(-n2nnc(-c3nc(-c4cccs4)no3)c2N)cc1,inactive: 6.86%
7,CC1CCN(C(=O)CSc2n[nH]c(-c3ccc(F)cc3)n2)CC1,inactive: 1.31%
8,CC(C)OC(=O)c1ccc(Cn2nnc3sc4c(c3c2=O)CCCC4)cc1,inactive: -4.46%
9,COc1ccc2c(c1)c1c(c(=O)n(-c3ccccc3C)c(=O)n1Cc1cccc(C(F)(F)F)c1)n2C,inactive: -1.4%
10,CCCN(c1c(C)n(C)n(-c2ccccc2)c1=O)S(=O)(=O)c1ccc(C)cc1,inactive: -7.28%
11,CC(NC(=O)c1ccc2c(c1)N(Cc1ccc(Cl)cc1)C(=O)CS2)c1ccccc1 (stereo not drawn),inactive: 3.45%
12,CCN(c1cccc(C)c1)S(=O)(=O)c1cc(Br)cc2c1N(C(C)=O)C(C)C2 (stereo not drawn),inactive: 16.6%
13,CCOc1ccc(CNC(=O)c2ccc3c(c2)c(C)c(C)n3Cc2ccccc2)cc1OC,inactive: -0.755%
14,CCOc1ccc(NC(=O)C(Cc2ccccc2)NS(=O)(=O)c2ccc3c(c2)oc(=O)n3C)cc1 (stereo not drawn),inactive: -9.64%
15,Cc1c(Cl)cccc1-c1ccc(CNCCSc2nnnn2-c2ccccc2)o1,inactive: 5.96%
16,COc1ccccc1C(=O)Nc1ccc2nc(SCC(=O)N(C)c3ccccc3)sc2c1,inactive: 0.295%
17,CCN(CC)S(=O)(=O)c1ccc(NC(=O)CN(c2ccccc2)S(=O)(=O)N(C)C)cc1,inactive: 3.11%
18,CCOc1ccc(NC(=O)c2c(Nc3ccccc3C)sc(C(=O)c3ccccc3)c2N)cc1,inactive: -12.9%
19,O=C(CN1C(=O)C2(SCC(=O)N2c2cccc(Cl)c2)c2ccccc21)NCCc1ccccc1 (stereo not drawn),inactive: -19.8%
20,Cc1ccc(-n2ncc(C(=O)N3CCN(c4cc(Cl)ccc4C)CC3)c2C2CCN(C(=O)OC(C)(C)C)CC2)cc1,inactive: 1.79%
21,COc1ccc(CCNC(=O)c2ccc3c(c2)N(Cc2ccccc2)C(=O)c2ccccc2S3=O)cc1OC (stereo not drawn),inactive: -13%
22,COC(=O)c1ccc(Cl)cc1NC(=O)Nc1nnc(N2CCCC2)s1,inactive: 5.92%
23,CCOC(=O)C(CC)n1nnc2sc(-c3ccccc3)cc2c1=O (stereo not drawn),inactive: -15.7%
24,O=C(NCCS(=O)(=O)N1CCN(c2ccc(F)cc2)CC1)C(c1ccccc1)c1ccccc1,inactive: -2.14%

row,SMILES,"activity change, negative = cytotoxicity"
1,CC(=O)c1cccc(NC(=O)CSc2nnc3ccc(-c4ccc(Br)cc4)nn23)c1,inactive: 8.49%
2,COc1ccc(CN2C(=O)C(NC(=O)c3cccc(C)c3)(C(F)(F)F)N=C2c2ccccc2)cc1 (stereo not drawn),inactive: 1.28%
3,CCOc1ccc(NC(=O)CSc2cn(CCNC(=O)c3ccccc3F)c3ccccc23)cc1,inactive: 23%
4,Cn1c2ccccc2c2cnn(CC(=O)NCCCN3CCCCC3)c(=O)c21,inactive: -0.0522%
5,CCc1ccccc1NC(=O)CSc1nncn2c1cc1oc(C)cc12,inactive: 2.76%
6,Cc1ccc(CNC(=O)CSc2nc3c(sc4ccccc43)c(=O)n2CCCOC(C)C)cc1,inactive: -3.42%
7,Cc1ccc(NC(=O)Cn2c(=O)n(Cc3ccccc3)c(=O)c3sc4ccccc4c32)cc1,inactive: 0.285%
8,Cc1ccc(-n2c(=O)c3sc4ccccc4c3n(CC(=O)NC3CCCC3)c2=O)cc1C,inactive: -1.4%
9,COc1ccc(OC)c(CCNC(=O)c2cc3c(s2)-c2c(C)cccc2OC3)c1,inactive: -14.6%
10,Cc1ccc2oc(=O)c3cnn(CC(=O)N4CCN(c5ccc(F)cc5)CC4)c3c2c1,inactive: 7.51%
11,Cc1cccc(NC(=O)c2oc3ccccc3c2NC(=O)c2cc(=O)c3ccccc3o2)c1,inactive: 6.51%
12,CCOc1ccc(N2CC(NC(=O)c3ccc(Cl)cc3)CC2=O)cc1 (stereo not drawn),inactive: 3.9%
13,CN(c1ccc(F)cc1)S(=O)(=O)N1CCCC(C(=O)NCc2ccccc2Cl)C1 (stereo not drawn),inactive: 1.06%
14,CCN(CC)S(=O)(=O)c1ccc(OC)c(NC(=O)c2sc3ccccc3c2Cl)c1,inactive: 6.94%
15,Cc1ccc2c(c1)c1c(c(=O)n(Cc3ccccc3)c(=O)n1Cc1ccccc1F)n2C,inactive: 11%
16,CNC(=O)CN1C(=O)COc2ccc(S(=O)(=O)N3CCCCCC3)cc21,inactive: -0.777%
17,CCOC(=O)N1CCc2c(sc3c2c(=O)n(Cc2ccccc2)c(=O)n3CC(=O)Nc2ccc(F)cc2)C1,inactive: -2.42%
18,COc1ccc(CN(C)c2ccc(-c3nc(-c4ccc(OC)c(OC)c4)no3)cc2[N+](=O)[O-])cc1,inactive: 5.09%
19,CCOc1ccc(NC(=O)CN(Cc2ccccc2)S(=O)(=O)c2ccc3nc(C)sc3c2)cc1,inactive: 2.66%
20,CN1C(=O)c2cccc3c(S(=O)(=O)Nc4cccc(C(=O)O)c4)ccc1c23,inactive: 3.96%
21,CCOc1ccc(CCNC(=O)Cn2c(-c3cccs3)cc3ccccc32)cc1,inactive: 0.0932%
